The target in the assay is T1, CETP (Homo sapiens, UniProt P11597).
T1 construct: from tissue; host or cells: human plasma from normal volunteers
T1 sequence (P11597 18-493): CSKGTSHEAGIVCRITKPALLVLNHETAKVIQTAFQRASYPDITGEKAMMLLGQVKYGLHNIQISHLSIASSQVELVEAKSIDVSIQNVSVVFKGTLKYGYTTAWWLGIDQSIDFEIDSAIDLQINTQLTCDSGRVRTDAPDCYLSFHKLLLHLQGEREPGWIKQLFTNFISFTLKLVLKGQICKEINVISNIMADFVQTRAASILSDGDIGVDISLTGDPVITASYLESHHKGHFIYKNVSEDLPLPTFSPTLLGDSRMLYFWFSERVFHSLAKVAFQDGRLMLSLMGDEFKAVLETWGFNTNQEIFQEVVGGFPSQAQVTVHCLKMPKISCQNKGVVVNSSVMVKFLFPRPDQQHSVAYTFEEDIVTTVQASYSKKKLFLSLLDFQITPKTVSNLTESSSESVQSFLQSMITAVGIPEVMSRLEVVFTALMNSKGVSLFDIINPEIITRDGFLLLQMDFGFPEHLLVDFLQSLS
As to the kind of experiment: CETP in vitro assay ([3H]CE-HDL transfer, Amersham kit TRKQ7005; modified protocol in human plasma). Type of assay: biochemical. The note with it: multiple values = multiple measurements. How it is done: The CETP inhibitory activity of the compounds was determined using a commercially available kit from Amersham Biosciences (Catalog #TRKQ7005).
For the measurement of inhibitory activity in human plasma, a modified protocol (Connolly, D. T. et al., Biochemistry, 39 13870-13879, 2000) was used. Briefly, 80 μl of human plasma (obtained from normal volunteers), approximately 25 μg/ml (200) of [^3H]CE-HDL (Amersham Biosciences from kit TRKQ7005) and 1 μl of compound dissolved in DMSO was incubated for at least 4 hrs at 37° C. and non-specific transfer was determined by incubating a corresponding plate at 4° C. (blank). After the incubation period, 100 of a solution of 1% Dextralip 50/0.5M MgCl2, pH 7.4 was added, vortexed and incubated at room temperature for 10 min. The plate was then centrifuged for 30 min at 10° C. at 3000 rpm in a Sorvall RT6000B centrifuge. Fifty microliters of the supernatant was transferred to a Picoplate (Packard) containing 100 μl of Microscint 40 (Perkin Elmer) and mixed for 30 min using a plate mixer. The radioactivity was counted using a TopCount (Perkin Elmer) and the % control was determined in the samples using the following formula: % transfer relative to vehicle controls (% control)=[cpm blank-cpm test]/cpm blank/cpm control]×100. IC50s were calculated from plots of the % control versus compound concentration. […]

By IC50 is commonly meant the concentration at which inhibition is half-maximal.

Each structure is given as a SMILES string. Not every entry of the source has a single result; some have several. The list is limited to them. There may be further records. Values given together appear to be repeats on other runs, samples or individuals.

As to `OC(CN1c2cccc(-c3cccc(F)c3)c2OCC1c1cccc(OC(F)(F)C(F)F)c1)C(F)(F)F` (single isomer, unassigned) [Compound 66, 1,1,1-Trifluoro-3-{8-(3-fluoro-phenyl)-3-[3-(1,1,2,2-tetrafluoro-ethoxy)-phenyl]-2,3-dihydro-benzo[1,4]oxazin-4-yl}-propan-2-ol], the IC50 was 1 nM and 322 nM [one cell].

These data come from patent US8012963B2, “3,4-dihydro-2H-benzo[1,4]oxazine and thiazine derivatives as CETP inhibitors” (Janssen Pharmaceutica N.V., priority 2006, dated 2011).
